Results are given in words; binding and its absence hold for the method and conditions named. In cells and extracts the contact can be indirect. Some entries that bind do so weakly or less than the wild type.
B1: Kindlin-2, endogenous in mouse liver (protein, UniProt Q8CIB5 1-680)
chain: MALDGIRMPDGCYADGTWELSVHVTDLNRDVTLRVTGEVHIGGVMLKLVEKLDVKKDWSDHALWWEKKRTWLLKTHWTLDKCGIQADAKLQFTPQHKLLRLQLPNMKYVKVKVNFSDRVFKAVSDICKTFNIRHPEELSLLKKPRDPTKKKKKKLDDQSEDEALELEGPLIMPGSGSIYSSPGLYSKTMTPTYDAHDGSPLSPTSAWFGDSALSEGNPGILAVSQPVTSPEILAKMFKPQALLDKAKTNQGWLDSSRSLMEQDVKENEALLLRFKYYSFFDLNPKYDAIRINQLYEQAKWALLLEEIECTEEEMMMFAALQYHINKLSIMTSENHLNNSDKEVDEVDAALSDLEITLEGGKTSTILGDITSIPELADYIKVFKPKKLTLKGYKQYWCTFKDTSISCYKSREESSGTPAHQLNLRGCEVTPDVNISGQKFNIKLLIPVAEGMNEIWLRCDNEKQYAHWMAACRLASKGKTMADSSYNLEVQNILSFLKMQHLNPDPQLIPDQITTDVNPECLVSPRYLKKYKSKQITARILEAHQNVAQMSLIEAKMRFIQAWQSLPEFGITHFIARFQGGKREELIGIAYNRLIRMDASTGDAIKTWRFSNMKQWNVNWEIKMVTVEFADEVRLSFICTEVDCKVVHEFIGGYIFLSTRAKDQNESLDEEMFYKLTSGWV

By UniProt entry, the sequences of proteins in these tests, tags left out.
UniProt Q12778: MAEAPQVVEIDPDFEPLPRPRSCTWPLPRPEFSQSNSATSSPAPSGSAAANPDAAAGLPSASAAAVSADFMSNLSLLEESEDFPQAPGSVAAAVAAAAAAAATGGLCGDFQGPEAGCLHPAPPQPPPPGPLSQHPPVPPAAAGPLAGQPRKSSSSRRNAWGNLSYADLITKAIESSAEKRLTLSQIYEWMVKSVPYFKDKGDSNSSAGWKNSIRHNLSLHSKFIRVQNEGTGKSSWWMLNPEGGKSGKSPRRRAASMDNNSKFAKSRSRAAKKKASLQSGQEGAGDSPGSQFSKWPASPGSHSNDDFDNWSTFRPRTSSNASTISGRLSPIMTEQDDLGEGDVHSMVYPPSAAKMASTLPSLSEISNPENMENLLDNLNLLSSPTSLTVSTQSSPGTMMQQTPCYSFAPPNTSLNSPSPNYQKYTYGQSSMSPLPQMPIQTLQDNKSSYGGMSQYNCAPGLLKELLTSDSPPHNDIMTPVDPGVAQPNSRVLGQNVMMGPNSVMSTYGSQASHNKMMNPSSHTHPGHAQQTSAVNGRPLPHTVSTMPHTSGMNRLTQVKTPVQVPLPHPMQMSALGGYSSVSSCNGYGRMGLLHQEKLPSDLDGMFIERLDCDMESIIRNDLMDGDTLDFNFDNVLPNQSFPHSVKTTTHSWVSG
UniProt Q9R1E0: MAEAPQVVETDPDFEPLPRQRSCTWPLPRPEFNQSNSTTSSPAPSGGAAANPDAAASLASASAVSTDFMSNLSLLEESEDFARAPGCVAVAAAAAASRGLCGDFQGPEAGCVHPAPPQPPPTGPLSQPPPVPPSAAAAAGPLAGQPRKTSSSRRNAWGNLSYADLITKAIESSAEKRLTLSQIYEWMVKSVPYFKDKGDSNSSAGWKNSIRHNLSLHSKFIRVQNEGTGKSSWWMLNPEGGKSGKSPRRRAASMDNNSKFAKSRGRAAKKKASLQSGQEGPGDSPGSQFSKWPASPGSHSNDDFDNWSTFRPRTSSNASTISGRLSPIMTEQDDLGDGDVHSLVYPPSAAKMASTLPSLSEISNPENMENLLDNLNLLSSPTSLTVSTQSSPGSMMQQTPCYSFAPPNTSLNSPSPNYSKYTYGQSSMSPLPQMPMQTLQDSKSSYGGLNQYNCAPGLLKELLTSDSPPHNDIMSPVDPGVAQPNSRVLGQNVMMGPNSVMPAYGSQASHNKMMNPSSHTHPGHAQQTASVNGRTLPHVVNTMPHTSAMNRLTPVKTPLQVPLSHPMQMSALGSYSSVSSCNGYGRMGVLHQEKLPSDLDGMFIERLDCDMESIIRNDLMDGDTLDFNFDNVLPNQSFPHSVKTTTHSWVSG

Assays:
[1] = biological target: V5-tagged Foxo1 overexpressed in HepG2 cells (UniProt Q12778); experiment: co-IP; HepG2 cells overexpressing V5-tagged Foxo1; IP with anti-V5 antibody, blot for Kindlin-2
[2] = biological target: Foxo1, endogenous in HepG2 cells (human (endogenous in HepG2)) (UniProt Q12778); experiment: co-IP; endogenous proteins in HepG2 cell lysates, IP and IB with the indicated antibodies; Fig. 6i in cells infected with lentiviruses expressing Kindlin-2 shRNA (sh-K2 #1, #2) or control shRNA (sh-NC)
[3] = biological target: V5-tagged Foxo1 (UniProt Q12778); experiment: co-IP; HEK293T cells transiently co-transfected with the plasmids, lysed after 48 h in IP buffer (50 mmol/L Tris-HCl pH 8.0, 150 mmol/L NaCl, 0.5% sodium deoxycholate, 1% NP-40); antibodies overnight at 4 °C, Protein A/G-agarose; 200 μg whole-cell extract; Fig. 6j with and without Kindlin-2 overexpression
[4] = biological target: Foxo1, endogenous in mouse liver (mouse (endogenous in liver)) (UniProt Q9R1E0); experiment: co-IP; protein extracts from livers of db/db and HFD-fed mice, IP and IB

| Molecule | binding [3] | other results |
| --- | --- | --- |
| Kindlin-2, endogenous in HepG2 cells (from UniProt Q96AC1 1-680) | – | binding [1]: binds; binding [2]: binds |
| Flag-tagged Kindlin-2, full-length (FL) (from UniProt Q96AC1 1-680) | binds | – |
| Kindlin-2 with deletion of aa 570-680 (from UniProt Q96AC1 1-569) (domain or fragment) | no binding | – |
| Kindlin-2 with deletion of aa 240-680 (from UniProt Q96AC1 1-239) (domain or fragment) | no binding | – |
| Kindlin-2 with deletion of aa 1-569 (C-terminal region aa 570-680) (from UniProt Q96AC1 570-680) (domain or fragment) | binds | – |
| B1 | – | binding [4]: binds |

Reference: paper PMC8866405
